# Experimental data taken from the supplement of paper PMC4604168 (melanoma cell lines).
# The list shows a part of the results. Repeats are few or missing, and single values can be far off.
# What was measured:
# Assay in all cases: cell count relative to DMSO control; melanoma cells; higher = more viable cells
# Details in all cases: library dose: standard library concentration; 72 h
# IST-MEL1 = system: IST-MEL1
# LB2518-MEL = system: LB2518-MEL
# LOXIMVI = system: LOXIMVI
# MEL-HO = system: MEL-HO
# MZ2-MEL = system: MZ2-MEL
# MeWo = system: MeWo
# RPMI7951 = system: RPMI7951
# RVH-421 = system: RVH-421
# SkMel28 = system: SkMel28
# SkMel2 = system: SkMel2
# SkMel30 = system: SkMel30
# SkMel5 = system: SkMel5
# UACC257 = system: UACC257
# UACC62 = system: UACC62
# WM115 = system: WM115
# WM1716 = system: WM1716
# WM1745 = system: WM1745
# WM3526 = system: WM3526
# WM3619 = system: WM3619
# WM451Lu = system: WM451Lu
# 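Also: cells treated in 1,536-well plates, then fixed and DAPI-stained, with nuclei counted from automated high-throughput microscope images.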
Structure (SMILES),cell count (IST-MEL1) [%],cell count (LB2518-MEL) [%],cell count (LOXIMVI) [%],cell count (MEL-HO) [%],cell count (MZ2-MEL) [%],cell count (MeWo) [%],cell count (RPMI7951) [%],cell count (RVH-421) [%],cell count (SkMel28) [%],cell count (SkMel2) [%],cell count (SkMel30) [%],cell count (SkMel5) [%],cell count (UACC257) [%],cell count (UACC62) [%],cell count (WM115) [%],cell count (WM1716) [%],cell count (WM1745) [%],cell count (WM3526) [%],cell count (WM3619) [%],cell count (WM451Lu) [%]
"Cc1cc([N+](=O)[O-])ccc1NS(=O)(=O)c1cc(Cl)ccc1Cl + O=c1cc(-c2cccc3c2Sc2ccccc2S3)oc(N2CCOCC2)c1 [KU55933] (first compound 5 µM, partner dose 5 µM)",59.7,105,78.6,49.2,70,78.2,72.5,101,68.5,76,73.3,76.4,73.6,73.4,77.7,80.9,67.2,71.7,57.5,90.8
"COc1ccc(COc2ccc(Cc3cnc(N)nc3N)cc2OC)cc1 + CCCCCCCCCCCC1=C(O)C(=O)C=C(O)C1=O [Embelin] (first compound 5 µM, partner dose 6 µM)",111,112,83.5,94.4,107,94.8,97.9,84.7,83,90.2,92.8,65.6,93.6,87.9,86.8,79.9,88.1,87.2,123,91.9
"N#Cc1c(O)c2c(-c3ccc(-c4ccccc4O)cc3)csc2[nH]c1=O + COc1cc2ncnc(Nc3ccc(Oc4ccccc4)cc3)c2cc1OC [SrcI1] (first compound 10 µM, partner dose 10 µM)",89.6,135,79.9,89.6,76.8,74.5,69.5,91.5,77.4,86.5,95.4,66.3,88.9,95,78.6,98.2,73.4,75,72.2,102
"COc1ccc(-c2ccc3c(N4CCOCC4)nc(N4C[C@@H](C)O[C@@H](C)C4)nc3n2)cc1CO + COc1cc(N2CCC(N3CCN(C)CC3)CC2)ccc1Nc1ncc(Cl)c(Nc2ccccc2S(=O)(=O)C(C)C)n1 [NVP-TAE684] (first compound 0.1 µM, partner dose 0.4 µM)",80.6,81.7,107,67.9,52.2,45.8,66.8,73.1,42.9,52.2,91.5,44.7,79.5,56.3,55.2,75,51.4,47.4,53.4,51.7
"O=C1NC(=O)/C(=C/c2ccc(-c3ccc(F)cc3O)o2)S1 + COc1cc(N2CCC(N3CCN(C)CC3)CC2)ccc1Nc1ncc(Cl)c(Nc2ccccc2S(=O)(=O)C(C)C)n1 [NVP-TAE684] (first compound 5 µM, partner dose 0.4 µM)",96.9,104,90.5,71.1,79,70.2,82.9,283,87.2,67.2,74.5,40.7,89.3,91.1,81.2,90.1,58.8,66,62.5,80.6
"COc1ccc(-c2ccc3c(N4CCOCC4)nc(N4C[C@@H](C)O[C@@H](C)C4)nc3n2)cc1CO + COc1ccc(COc2ccc(Cc3cnc(N)nc3N)cc2OC)cc1 [GW2580] (first compound 0.1 µM, partner dose 5 µM)",104,84.1,90,76.7,78.8,84.6,87.2,80.7,79.8,90.3,80.2,77.1,92,151,88.1,109,103,99.5,66.4,115
"N#Cc1c(O)c2c(-c3ccc(-c4ccccc4O)cc3)csc2[nH]c1=O + O=C(O)C(=O)Nc1sc2c(c1C(=O)O)CCNC2 [TCS401] (first compound 10 µM, partner dose 8.33333 µM)",103,115,124,109,90.8,113,116,85.2,72.3,104,136,99.3,99.7,151,133,101,113,112,80.8,109
"COc1ccc2c(c1)CCC1C2CCC2(C)C(NCCCCCCN3C(=O)C=CC3=O)CCC12 (stereo not given) + Cn1cc(/C=C2\C(=O)Nc3cccnc32)c2ccccc21 [GW441756] (first compound 2 µM, partner dose 2 µM)",91.9,85,74.4,96.7,83.4,56.7,40.4,103,86,98.7,112,62.7,86.1,84.3,76.1,72.7,70.8,83.2,94.8,86.9
